Reference: a compilation of properties of binary mixtures (doi:10.1016/j.molliq.2022.119918)
The densities may have been worked out from excess volumes.

Assay: xn = mol fraction of the nth substance listed
Settings: 100 kPa

CS(C)=O + COCCCC[n+]1ccn(C)c1.NCC(=O)[O-]
x2 = 0
Settings	mass density [kg/m3]
288.15 K	1105.2
293.15 K	1100.3
298.15 K	1095.2
303.15 K	1090.2
313.15 K	1080.2
318.15 K	1075.2

COCCCC[n+]1ccn(C)c1.NCC(=O)[O-] + CS(C)=O
mass density [kg/m3]
Settings	x1 = 0.1009	x1 = 0.1984	x1 = 0.299	x1 = 0.3986	x1 = 0.4986	x1 = 0.6006	x1 = 0.701	x1 = 0.7941	x1 = 0.907	x1 = 1
288.15 K	1140.5	1151.1	1154.6	1157	–	1162.9	1165.1	1166.1	1167	1168.8
293.15 K	1135.8	1146.9	1150.7	1153.4	–	–	1161.6	–	1163.8	1165.4
298.15 K	1131.7	1142.6	1146.7	1149.6	1152.6	1155.9	1158.1	–	1160.2	–
303.15 K	–	1138.5	–	1145.7	1149.1	1152.3	1154.7	1155.8	1156.7	1158.3
308.15 K	–	1134.2	–	1141.9	1145.4	1148.7	–	1152.3	1153.1	1154.7
313.15 K	1118.1	1130	1134.8	1138	1141.7	1145.2	1147.8	1148.8	1149.5	1151
318.15 K	–	1125.8	1130.6	1134.4	1138.2	1141.8	1144.3	1145.4	1145.8	1147.3

CC(N)C(=O)[O-].COCCCCn1cc[n+](C)c1 + CS(C)=O
mass density [kg/m3]
Settings	x1 = 0.1009	x1 = 0.1996	x1 = 0.3012	x1 = 0.3985	x1 = 0.4922	x1 = 0.5996	x1 = 0.6966	x1 = 0.7973	x1 = 0.8997	x1 = 1
288.15 K	1139	–	–	1149.2	1150.6	–	1154.5	1156.1	–	1162.7
293.15 K	1134.2	–	–	1145.6	1146.8	1149	1150.8	1152.5	1154.7	–
298.15 K	1129	–	1140.8	1141.7	1143.1	1145.4	1147.3	1149	1151.2	1155.5
303.15 K	1124.5	–	1136.9	1138.1	1139.4	–	1143.7	1145.5	1147.7	1151.8
308.15 K	1119.9	1129.9	1133	–	1135.7	–	–	–	1144.1	1148.2
313.15 K	1115	1125.8	1128.6	1130.3	1131.9	1134.4	–	1138.4	1140.6	1144.5
318.15 K	–	1121.5	1124.8	1126.5	–	–	1132.8	–	1137.1	1140.8

CS(C)=O + NC(C)C(=O)[O-].COCCCCN1C=[N+](C=C1)C
x2 = 0
Settings	mass density [kg/m3]
288.15 K	1105.2
293.15 K	1100.3
298.15 K	1095.2
303.15 K	1090.2
313.15 K	1080.2
318.15 K	1075.2
